# Source: the supplement of paper PMC3334620
# Whole data set: some 33,000 sequences, median “E-score (-0.5 to 0.5)” near -0.035, cut for the highest 2% near 0.34. This is one part of the list.
# Target: T1, Mot3 (UniProt P54785)
# T1 sequence: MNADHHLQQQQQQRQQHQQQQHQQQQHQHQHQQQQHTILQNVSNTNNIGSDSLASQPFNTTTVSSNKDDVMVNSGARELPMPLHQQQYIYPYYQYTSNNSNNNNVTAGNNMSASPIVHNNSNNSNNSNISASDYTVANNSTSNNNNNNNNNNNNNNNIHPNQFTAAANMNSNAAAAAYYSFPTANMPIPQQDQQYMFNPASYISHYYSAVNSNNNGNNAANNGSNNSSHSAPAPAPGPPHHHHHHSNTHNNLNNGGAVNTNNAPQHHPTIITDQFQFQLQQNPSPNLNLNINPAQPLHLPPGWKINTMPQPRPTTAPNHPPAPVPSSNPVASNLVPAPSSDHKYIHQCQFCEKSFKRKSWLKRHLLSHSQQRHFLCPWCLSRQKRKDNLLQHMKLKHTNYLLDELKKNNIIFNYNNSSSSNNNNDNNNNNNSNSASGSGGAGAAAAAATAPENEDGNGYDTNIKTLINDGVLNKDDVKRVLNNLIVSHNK
# Test: PBM E-score (8-mer binding enrichment) (E-score (-0.5 to 0.5)); higher = stronger / more preferred TF binding; most listed sequences are background and not binding sites
# Settings: protein concentration: 200 nM; construct: GST-full length
# How it was run: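 The E-score, a modified Wilcoxon-Mann-Whitney statistic, was computed by the Universal PBM Analysis Suite for every ungapped eight-base word pooled with its reverse complement. Scans behind it were normalised with masliner after bound GST-tagged yeast transcription factors were detected with fluorescent anti-GST. The proteins, at about 100-200 nM, had been applied to universal all-10-mer Agilent arrays made double-stranded by primer extension.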
row,Sequence,PBM E-score
1,ACAGCCGC,-0.178
2,CAACGCGG,0.0945
3,ATTGACCG,0.131
4,CCCAGATA,-0.365
5,ATCTTATA,-0.056
6,GGTTCAAC,-0.0537
7,AAGATAGT,-0.143
8,ACAAGCCG,0.111
9,GAACACGA,0.187
10,ATAGAGTA,0.117
11,TCGACACA,0.179
12,GGTGCGAA,-0.0836
13,CCGGCTGA,-0.204
14,CACTACCG,-0.239
15,GGGGCGTA,-0.00086
16,CCAGCTCA,-0.199
17,ACTTTGTC,-0.0322
18,CGACGGTC,-0.104
19,GGTTGGAC,-0.255
20,AAGTGCTA,-0.0884
21,AGCGTCGA,-0.0838
22,CAAACAGC,-0.0942
23,AATGGCCA,-0.235
24,AGCTTTCA,0.0997
25,ACCCCGAT,-0.187

row,Sequence,PBM E-score
1,GATCATGA,0.0657
2,CTCATCAC,0.033
3,GCTGCATA,-0.0875
4,CACCTTGC,0.0972
5,TGGCTACA,-0.00828
6,CAAACAAA,0.119
7,AAGGGAGA,-0.00996
8,CGCGCAAA,0.0262
9,AAGGGCCA,-0.103
10,ACTGCGTA,0.159
11,ATAACATA,0.344
12,CGCCCGAG,-0.207
13,CTGGGTAA,-0.0878
14,ACTCCTAA,-0.0764
15,TCCACTAA,0.102
16,ATACACGC,0.37
17,CTGCCCCA,-0.213
18,ATCGGGTG,-0.126
19,ATTGTACG,0.0405
20,GTCCAGTA,-0.13
21,AACACAAT,0.277
22,GCTATGAA,0.0777
23,GAAACTAA,-0.0415
24,AGGGCCTA,-0.0122
25,ACGCTTTC,-0.0519

row,Sequence,PBM E-score
1,CTGGCATC,-0.105
2,TCCGGTCA,-0.108
3,AATGTGCT,-0.0246
4,AATCCGCA,-0.096
5,CTATGGTC,-0.262
6,CTGGCGTA,0.0713
7,AAGGTATC,-0.035
8,CCTAAGTC,-0.128
9,AGTGAAAT,-0.0218
10,ACGGTGGA,-0.067
11,GAGCCCAC,-0.275
12,CCTGAACA,0.23
13,AGGCAGAC,-0.0304
14,GACTTCTA,-0.184
15,ACTCGACT,-0.101
16,GGGCGTAA,0.135
17,CTGGCCTC,-0.244
18,CCTCTAAG,-0.189
19,CATTGGAA,0.115
20,ACCATCAG,-0.0992
21,CCCTGAGC,-0.295
22,ACTTCACC,-0.111
23,AGCTTATA,-0.0822
24,ACTATAGG,0.0442
25,CAAAGTAG,0.0427

row,Sequence,PBM E-score
1,AATCTCCA,-0.138
2,CGGGGGAC,-0.364
3,TATGCCCA,-0.186
4,AAATGCAC,0.0764
5,ATCAAGTG,-0.0111
6,TAGTGTAA,0.206
7,GGCCTCTA,-0.132
8,GAGATAGA,0.0769
9,TCCATGGA,0.0305
10,CCATATTA,0.109
11,GTGATTGA,0.145
12,CGCAAACC,-0.037
13,AAGTGTAC,0.0824
14,GGTTGAAA,-0.0271
15,AACTTCAG,0.0391
16,AGGAGTTC,0.0672
17,ACCTGCTG,0.144
18,AAGGAAGA,-0.0092
19,AAACCCGA,0.00505
20,AGGCATGC,0.297
21,CGCGAGAC,-0.11
22,CCCATGTA,0.377
23,ATGACCCA,0.00523
24,CCCATAGC,-0.311
25,CTATATTA,0.251

row,Sequence,PBM E-score
1,CCCTGGAG,-0.0916
2,ATTGTAGG,0.329
3,AGGGGACA,-0.183
4,CCAAATTC,-0.123
5,CTACTGAA,0.0666
6,TACTTCAA,0.0493
7,CGGGCAAG,-0.0786
8,GTCGGGAA,-0.104
9,CCCCCGTA,-0.197
10,CCTACCTC,-0.104
11,CATGTCTC,-0.00903
12,CAAGGTAC,0.376
13,AGAGTTGG,-0.193
14,GGTGGCAA,-0.286
15,CGTCTGAG,-0.102
16,CAACGTAA,0.298
17,ATAATTGC,0.177
18,CGATAAGA,-0.0413
19,ATTACAGA,0.24
20,AAGAAGTG,0.0314
21,ATACGTAC,0.228
22,CGTTCATC,0.0679
23,ATACATAG,0.299
24,CATGACAG,0.024
25,ATAAGAGA,-0.0923

row,Sequence,PBM E-score
1,GTGAAATA,0.139
2,ATAAAACC,-0.259
3,CTACGCGA,0.232
4,AACTTCAA,0.152
5,AAATGAGT,0.0592
6,ACGAAAGT,0.04
7,GCAAGCGC,-0.128
8,GGACACCC,-0.36
9,AAGCGAGC,-0.0719
10,TGGACCCA,-0.182
11,AACCAATC,-0.0822
12,TGCGCCCA,-0.243
13,TGACAAAA,0.0873
14,AGATACAT,0.246
15,TCACGGGA,-0.125
16,CCCGTCAG,-0.271
17,AACTGTGA,-0.134
18,GGAAAGTA,0.215
19,ACCCCTCA,-0.13
20,CAGCTTAA,0.0654
21,GAACCTGA,-0.00989
22,CATCGCAA,-0.0405
23,ACACGACT,0.289
24,GGACAACA,0.112
25,ACCTTCGA,0.0734

row,Sequence,PBM E-score
1,AGGTTGCG,-0.162
2,TACGGTCA,-0.081
3,CGAGCTAC,-0.158
4,ACCGTTGC,-0.128
5,CACGACTG,-0.0316
6,CCTACGGC,-0.0487
7,TCGCGGCA,-0.223
8,GATCATAA,0.0411
9,AGTCCTAC,-0.125
10,AAACATAC,0.22
11,CATTAATC,0.0727
12,AGGACCAT,-0.148
13,GGAGGTCA,-0.209
14,ATGCGATC,-0.133
15,ATGAAAGG,0.102
16,GCGAACCA,-0.0792
17,CCACGCAG,0.01
18,CGACTCCC,-0.203
19,ACCATACT,-0.0125
20,TAAGAAGA,0.0425
21,ATACCGAT,-0.144
22,AAAGATGC,0.132
